# In PubChem BioAssay AID624417 (National Center for Advancing Translational Sciences (NCATS), 2012):
# The whole screen tested about 410,000 compounds, of which about 6,400 (1.6%) were called active. The shares of active, inactive and inconclusive entries below differ from those in the screen. Calls follow the shape of the dose curve; as a rule, active = well fitted inhibition curve with a large enough effect; inconclusive = small, poorly fitted or top-dose-only effect; inactive = no such curve, though single readings can be large or run the other way. No potency is given beside an inconclusive call; the fits are too rough.
# Target: Glucagon-like peptide 1 receptor (Homo sapiens) (UniProt P43220)
# Sequence of UniProt P43220 (P43220 whole entry, looked up): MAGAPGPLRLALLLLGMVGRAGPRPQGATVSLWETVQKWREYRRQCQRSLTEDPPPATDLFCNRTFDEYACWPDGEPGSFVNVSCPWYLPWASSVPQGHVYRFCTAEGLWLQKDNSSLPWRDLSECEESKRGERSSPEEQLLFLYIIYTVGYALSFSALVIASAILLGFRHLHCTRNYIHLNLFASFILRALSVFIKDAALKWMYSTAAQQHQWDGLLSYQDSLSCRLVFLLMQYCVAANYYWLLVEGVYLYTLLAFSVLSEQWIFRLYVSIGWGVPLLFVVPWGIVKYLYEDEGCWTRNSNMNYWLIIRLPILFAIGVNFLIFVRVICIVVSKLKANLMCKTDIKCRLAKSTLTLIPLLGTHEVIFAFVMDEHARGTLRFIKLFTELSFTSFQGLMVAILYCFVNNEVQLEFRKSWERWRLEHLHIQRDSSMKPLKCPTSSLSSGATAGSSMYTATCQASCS
# Assay: qHTS of GLP-1 Receptor Inverse Agonists (Inhibition Mode); also: nearly all actives have a fitted effect of over 55% in size
# Conditions: HEK293 GLP-1R CRE-luciferase, luminescence, 24 h, GLP-1R form is constitutively active; series mostly up to 38.3 µM
# Summary of the method: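 Constitutively active GLP-1R drives a cAMP-responsive luciferase in stably transfected HEK293 cells; test compounds are added after overnight (12 h) attachment and left 24 hr, and signal loss in luminescence marks inhibition.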
# Potency is read from the fitted curve at half-maximal effect; tags tell the direction and shape of the fitted curve.
row,Structure (SMILES),Potency
1,Cc1cccc(NC(=O)CN2C(=O)C3(SCC(=O)N3c3ccccc3)c3ccccc32)c1 (stereo not given),"inconclusive [inhibitor, partial curve]"
2,COc1ccc(C(OCC(O)CNCCc2ccc(S(N)(=O)=O)cc2)c2ccc(OC)cc2)cc1 (stereo not given),"inconclusive [inhibitor, partial curve, poor fit]"
3,Cc1ccc(Cl)cc1N1CCN(S(=O)(=O)c2cccc(S(=O)(=O)N3CCCC3)c2)CC1,"inconclusive [inhibitor, single point]"
4,Cn1c(=NC(=O)CCl)sc2ccccc21,"inconclusive [inhibitor, single point]"
5,Cc1cccc(-c2cc(C(=O)Nc3ccc4c(c3)OCCO4)c3ccccc3n2)c1,"inconclusive [inhibitor, partial curve, poor fit]"
6,CCc1c(C)sc(NC(=O)C2CC2)c1C(=O)OC(C)C,"inconclusive [inhibitor, single point]"
7,Cc1ccc(NC(=O)c2ccc(CSc3ncnc4nc[nH]c34)cc2)c(C)c1,"inconclusive [inhibitor, partial curve, poor fit]"
8,COCCOC(=O)c1[nH]c2c(c1C)C(=O)CC(c1ccc(F)cc1)C2 (stereo not given),"inconclusive [inhibitor, full curve, poor fit]"
9,Cc1c(C)n(Cc2ccc(Cl)cc2)c2ccc(C(=O)NCCCN3CCOCC3)cc12,active: 1.12 µM
10,Cc1ccc(Cn2c(CCNC(=O)c3cccc(C)c3)nc3ccccc32)cc1,"inconclusive [inhibitor, single point]"
11,Cn1c(N)nc2nc[nH]c2c1=S,inactive
12,Cc1ccc(/C=N/NC(=O)CCCOc2ccc(Cl)cc2Cl)cc1,"inconclusive [inhibitor, partial curve]"
13,CC(C)c1ccc(/C=N/NC(=O)c2ccccn2)cc1,"inconclusive [inhibitor, partial curve, poor fit]"
14,COc1ccccc1NC(=O)c1oc2ccccc2c1NC(=O)c1ccco1,inactive
15,Cc1ccc(NC(=O)COC(=O)c2cc(-c3cccs3)nn2-c2ccccc2)cc1[N+](=O)[O-],"inconclusive [inhibitor, single point]"
16,Cc1nc(C)c(C(=O)N/N=C/c2cc(Br)ccc2O)s1,"inconclusive [inhibitor, full curve, poor fit]"
17,COc1ccc(N2CCN(C(CNS(=O)(=O)c3ccccc3)c3ccccc3)CC2)cc1 (stereo not given),"inconclusive [inhibitor, partial curve, poor fit]"
18,Cc1ccc(O)c(N/C=C/C(=O)c2ccc(F)cc2)c1,"inconclusive [inhibitor, single point]"
19,O=C(Cn1cc(SCc2cccc(F)c2)c2ccccc21)N1CCCC1,"inconclusive [inhibitor, partial curve, poor fit]"
20,Cc1ccc(C(=O)Nc2nc(C(C)(C)C)cs2)s1,"inconclusive [inhibitor, full curve, poor fit]"

row,Structure (SMILES),Potency
1,c1ccc(CNc2nc(-c3ccccc3)nc3ccccc23)cc1,"inconclusive [inhibitor, partial curve, poor fit]"
2,O=C(NC1CCCCCC1)c1ccc(Cl)c(S(=O)(=O)N2CCOCC2)c1,"inconclusive [inhibitor, single point]"
3,Cc1ccc(C(=O)N/N=C\C=C\c2ccccc2[N+](=O)[O-])cn1,inactive
4,COc1ccc(NC(=O)c2cc(C3CCCCN3C(=O)c3cc(OC)c(C)c(OC)c3)on2)c(C)c1 (stereo not given),"inconclusive [inhibitor, partial curve, poor fit]"
5,Cc1cc2oc(C(=O)Nc3sc4c(c3C(=O)NCc3ccco3)CCC4)cc(=O)c2cc1C,inactive
6,Cc1ccc(CCSc2ccc(C(C)C)cc2)cn1,"inconclusive [inhibitor, partial curve, poor fit]"
7,COc1ccc(CN2CCCC(C(=O)Nc3cccc(-n4cccn4)c3)C2)c(F)c1 (stereo not given),"inconclusive [inhibitor, single point]"
8,COc1ccc2oc(=O)c(-c3nc(-c4cc(OC)c(OC)c(OC)c4)no3)cc2c1,inactive
9,CCN(CC)CCNC(=O)c1ccc(N2CCCCC2)c(NS(=O)(=O)c2ccc(C)cc2)c1,"inconclusive [inhibitor, partial curve, poor fit]"
10,Cc1ccccc1CNC(=O)C(=O)NCCC1CCCCN1S(=O)(=O)c1cccs1 (stereo not given),"inconclusive [inhibitor, single point]"
11,COc1cccc(-c2sc3ccccc3c2-c2ccc(OCCN(C)C)cc2)c1,"inconclusive [inhibitor, partial curve, poor fit]"
12,COc1cc(CNC(C)(C)CO)cc(Br)c1OCc1ccc(Cl)cc1Cl,"inconclusive [inhibitor, partial curve, poor fit]"
13,O=C(CCS(=O)(=O)c1ccccc1F)Nc1ccc(N2CCN(Cc3ccccc3)CC2)cc1,"inconclusive [inhibitor, single point]"
14,Cc1ccccc1S(=O)Cc1ccc(C(=O)NC2CCCCCC2)o1 (stereo not given),"inconclusive [inhibitor, partial curve, poor fit]"
15,N#Cc1nc(Cc2ccccc2)oc1NCc1cccnc1,inactive
16,O=C(N/N=C\c1ccc(Cl)s1)C1COc2ccccc2O1 (stereo not given),"inconclusive [inhibitor, partial curve, poor fit]"
17,COc1ccc(CC(=O)N(Cc2ccccc2)c2cccc(C)c2)cc1OC,"inconclusive [inhibitor, partial curve, poor fit]"
18,Cc1nc2ccccn2c(=O)c1CCN1CCC(C(=O)c2ccc(F)cc2)CC1,inactive
19,CCOC(=O)c1ccc(CN(Cc2ccc(F)cc2)S(=O)(=O)c2ccc(F)cc2)cc1,"inconclusive [inhibitor, partial curve]"
20,O=C(Nc1ccc(C(F)(F)F)cc1)c1cc(S(=O)(=O)NC2CCCCCC2)ccc1F,"inconclusive [inhibitor, partial curve, poor fit]"
